Entries with a single value are a further part of the results.
Test: confocal colocalisation, AD293
Conditions: glycan lost, control: wild-type Panx2

B1: Panx2: N86Q (protein)
parent chain: MHHLLEQSADMATALLAGEKLRELILPGSQDDKAGALAALLLQLKLELPFDRVVTIGTVLVPILLVTLVFTKNFAEEPIYCYTPHNFTRDQALYARGYCWTELRDALPGVDASLWPSLFEHKFLPYALLAFAAIMYVPALGWEFLASTRLTSELNFLLQEIDNCYHRAAEGRAPKIEKQIQSKGPGITEREKREIIENAEKEKSPEQNLFEKYLERRGRSNFLAKLYLARHVLILLLSVVPISYLCTYYATQKQNEFTCALGASPDGPVGSAGPTVRVSCKLPSVQLQRIIAGVDIVLLCFMNLIILVNLIHLFIFRKSNFIFDKLNKVGIKTRRQWRRSQFCDINILAMFCNENRDHIKSLNRLDFITNESDLMYDNVVRQLLAALAQSNHDTTPTVRDSGIQTVDPSINPAEPDGSAEPPVVKRPRKKMKWIPTSNPLPQPFKEQLAIMRVENSKTEKPKPVRRKTATDTLIAPLLDAGARAAHHYKGSGGDSGPSSAPPAASEKKHTRHFSLDVHPYILGTKKAKTEAVPPALPASRSQEGGFLSQTEECGLGLAAAPTKDAPLPEKEIPYPTEPALPGLPSGGSFHVCSPPAAPAAASLSPGSLGKADPLTILSRNATHPLLHISTLYEAREEEEGGPCAPSDMGDLLSIPPPQQILIATFEEPRTVVSTVEF
Colocalisation with ER marker PDI
  localisation_or_trafficking, other: Pearson colocalisation coefficient: decreases, 0.34 ± 0.03 vs 0.49 ± 0.02
Colocalisation with Mitotracker mitochondria
  localisation_or_trafficking, other: Pearson colocalisation coefficient: no change, −0.13 ± 0.06 vs −0.08 ± 0.03
Colocalisation with cis-Golgi marker GM130
  localisation_or_trafficking, other: Pearson colocalisation coefficient: increases, 0.43 ± 0.04 vs 0.23 ± 0.03
Colocalisation with lysosome marker Lamp-2
  localisation_or_trafficking, other: Pearson colocalisation coefficient: no change, −0.05 ± 0.02 vs −0.08 ± 0.01

From paper PMC6073767
